These results are taken from PubChem BioAssay (NCI).

“And” between values parts separate entries of the source, which are not always exact repeats. Equal entries are not always repeated.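 A five-concentration, 48-hour dose response in 96-well plates underlies each endpoint, interpolated linearly between surrounding concentrations. GI50 is the concentration that inhibits growth by half. The concentration for full growth arrest is given as TGI.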

In this assay the test system is NCI-H322M lung. In words: DTP human tumour cell line panel, 48 h.
What is called GI50 is the concentration giving 50% growth inhibition. One may read the TGI as the concentration at which net growth stops. As for `CC1(C)OCCn2c1nc1c(N3CCOCC3)nc(-c3cnc(N)nc3)nc12`, the GI50 is 0.326 µM and the TGI is above 24.4 µM.

On to `COc1cc(C2c3cc4c(cc3C(O)C(CO)C2CO)OCO4)cc(OC)c1OC` (stereo unspecified), for which the GI50 is 2.89 µM and the TGI was above 100 µM.

As to `Cc1csc(Nc2nc(-c3cccc(Br)c3)nc(C(Cl)(Cl)Cl)n2)n1`, the GI50 was 0.8 µM and the TGI stood at 2.88 µM.

`CCOC(=O)C1=C(N)Oc2ccc(Br)cc2C1C(C#N)C(=O)OCC` (stereo unspecified) had a TGI above 100 µM.

In the case of `CC[C@@]12N=C(N(C)C)C[C@]1(O)ON=C2C`, the TGI was above 100 µM.

With `COc1ccc(-c2oc(=O)ccc2-c2cc(OC)c(OC)c(OC)c2)cc1F`, the GI50 was 80.6 µM and the TGI is above 100 µM.

For the compound `CCOC(=O)C1(c2ccccc2)CCC(=O)CC1`, the TGI is above 100 µM.

In turn, `COc1ccc(-c2nc(SCC(=O)N/N=C/c3ccc(O)c(OC)c3)[nH]c2-c2ccc(OC)cc2)cc1` yielded a TGI above 100 µM.

Take `Cc1cccc(C(C)C)c1NC(=O)CC1Sc2ccccc2NC1=O` (stereo unspecified): the TGI was above 100 µM.

In the case of `O=C(NC(=O)c1cn(CCNCCO)c(=O)[nH]c1=O)OCc1ccccc1`, the TGI was above 100 µM.

With `O=C(CC(O)(C(F)(F)F)C(F)(F)F)c1cc(CC(=O)C(O)(C(F)(F)F)C(F)(F)F)cc(CC(=O)C(O)(C(F)(F)F)C(F)(F)F)c1`, the TGI came to 8.83 µM.

With `O=C(NC(CO)Cc1ccc(Oc2cc(CC(CO)NC(=O)OCc3ccccc3)ccc2OC(=O)OCc2ccccc2)cc1)OCc1ccccc1` (stereo unspecified), the TGI stood at 92.2 µM.

Compound `NCCCNCCCCNCCCN` yielded a TGI above 100 µM.

Consider `COc1ccc2[nH]cc(-c3nc(-c4c[nH]c5ncccc45)cs3)c2c1`, for which the GI50 was 7.67 µM and the TGI was above 100 µM.

As to `N#C/C=C(\c1ccc([N+](=O)[O-])cc1)n1nnc2cc(Cl)c(Cl)cc21`, the GI50 was 3.02 µM and the TGI came out at 11.4 µM.

For `COC1C(O)=C2C(=O)O/C(C)=C/C=C/C=C/C=C\CC(c3ccccc3)NC(=O)\C=C/C=C\C=C\C=C\[C@@]2(C)[C@@H]1O` (stereo partly specified), the TGI was 0.396 µM.

Compound `Cc1ccc(C(=O)N/N=C(\N=Nc2ccccc2[N+](=O)[O-])c2ccc(N(C)C)cc2)cc1` displayed a TGI above 100 µM.

With `CC(/C=N\NC(=S)N1CCCCC1)=N/NC(=S)N1CCCCC1`, the TGI was 15.8 µM.

As for `Cn1cc(C2=C(c3cn(C)c4cc(C(N)=O)ccc34)C(=O)NC2=O)c2ccccc21`, the GI50 is 1.53 µM and the TGI was 24.2 µM.

On to `NC12Oc3cc(O)cc(O)c3C1(c1ccc(Cl)cc1)c1c(O)cc(O)cc1O2` (stereo unspecified), for which the total growth inhibition concentration (TGI) was above 100 µM.

Consider `O=C(c1ccc(F)c(F)c1Nc1ccc(I)cc1F)N1CC(O)([C@@H]2CCCCN2)C1`, for which the GI50 is < 0.0369 µM and 0.27 µM; the concentration for total growth inhibition (TGI) was 13.9 µM and > 10 µM.

`C1CSCCSCCS1` displayed a TGI above 100 µM.

Take `CCc1c(OC(C)=O)c2c(NC3OC(COC(C)=O)C(OC(C)=O)C(OC(C)=O)C3OC(C)=O)nc(OC)nc2oc1=O` (stereo unspecified): the TGI was above 100 µM.

Compound `CCCNC(=S)/N=C/c1c(O)c2ccccc2[nH]c1=O` came in with a TGI above 100 µM.

As to `Cc1cc(C)nc(NS(=O)(=O)c2ccc(NNC(=O)c3cccc4c(=O)c5ccccc5[nH]c34)cc2)n1`, the TGI is above 100 µM.

In the case of `CCCCCCNC(=O)c1nc(-c2ccccc2)oc1Cc1ccc(OP(=O)(O)O)cc1`, the GI50 is 17 µM and the TGI came out at 38.2 µM.

`O=C(O)CSc1n[nH]c(-c2ccccc2)n1` registered a TGI above 100 µM.

The compound `Oc1cc(O)c2c(c1)OC(c1ccc(O)c(O)c1)C(OC1(c3cc(O)c(O)c(O)c3)Oc3cc(O)cc(O)c3C(O)C1O)C2` (stereo unspecified) came in with a TGI above 100 µM.

`Oc1ccc(-c2nc(-c3ccc(F)cc3)c(-c3ccc4ccccc4n3)[nH]2)cc1` showed a TGI of 46.5 µM.

Compound `O=C(CCc1cc(O)cc(O)c1)NCCc1cc(O)cc(O)c1` gave a total growth inhibition concentration (TGI) above 100 µM.

With `COc1ccccc1N1CCN(CCCn2c(=O)c3c(OC)nc(C)cc3c(=O)n2-c2ccccc2)CC1`, the GI50 was above 100 µM and the TGI was above 100 µM.

As for `CC(NNC(=O)CC(=O)N(C(=O)c1ccccc1)c1ccc(Cl)cc1)c1cc2ccccc2oc1=O` (stereo unspecified), the TGI is above 10 µM.

In turn, `Nc1nc(N)c(N=Nc2ccc([As](=O)(O)O)cc2)c(=O)[nH]1` gave a TGI above 100 µM.

The compound `Cc1cn(CCCCCOC(=O)NC(CCCN=C(N)N)C(=O)O)c(=O)[nH]c1=O` (stereo unspecified) registered a TGI above 100 µM.

As for `O=C1NN=C2C=C(c3ccc(Cl)cc3)CC(c3cccc(Cl)c3)C12` (stereo unspecified), the TGI was above 100 µM.

In the case of `CSc1nncc2[nH]c(C)nc12`, the TGI is above 100 µM.

`Cc1[nH]c2ccccc2c1-c1cc(-c2cc(-c3c(C)[nH]c4ccccc34)on2)no1` came in with a TGI above 100 µM.

As to `COC(=O)C1C=CN(N(C)C)C2=C1C(=O)c1c(O)cccc1C2=O` (stereo unspecified), the TGI turned out to be 4.33 µM.

For `O=c1c2ccccc2sc2cccc(NCCCN3CCN(CCCNc4cccc5sc6ccccc6c(=O)c45)CC3)c12`, the TGI was above 100 µM.

In turn, `COc1ccc(C(OC(C)=O)C2C(=C(C#N)C#N)c3ccccc3C2=C(C#N)C#N)cc1` (stereo unspecified) had a TGI above 100 µM.

In turn, `COc1ccc(OC)c(N2C(=O)CSC2c2cc(OC)c(OC)c(OC)c2)c1` (stereo unspecified) registered a TGI above 100 µM.

`CC1C[C@]2(C)C(=O)Nc3ccccc3[C@@H]2Nc2ccccc21` (stereo partly specified): the TGI was determined as 62.2 µM.

Take `O=c1[nH]c(=O)n(C2CC(O)C(CO)O2)cc1CO` (stereo unspecified): the GI50 was above 100 µM and the TGI is above 100 µM.

`CS(=O)(=O)CCCn1c(=O)c(Oc2ccc(F)cc2F)cc2cnc(NC3CCOCC3)nc21`: the GI50 is above 25 µM and the TGI is above 25 µM.

`C=Cc1c(C)c2cc3nc(cc4[nH]c(cc5nc(cc1[nH]2)C(C)=C5CCC(=O)O)c(CCC(=O)OC)c4C)[C@@]1(C)C3=CC=C(C(=O)OC)[C@H]1C(=O)OC`: the GI50 is 1.79 µM and the TGI turned out to be 4 µM.

`N#CC1(C#N)C2CCCCC23OC(=N)C1(C#N)C(c1ccccc1)O3` (stereo unspecified) had a TGI above 100 µM.

The compound `O=C(CC(=O)c1ccccc1)CC(O)(c1ccccc1)c1ccccc1` showed a TGI of 27.7 µM. This lies in the double-digit micromolar range.

`Cn1c(N)c2c3c(sc2nc1=O)CCCC3` came in with a TGI above 75 µM.

`O=c1cc2oc3cc(O)c(O)cc3c(-c3ccccc3O)c-2cc1O`: the GI50 is 11.6 µM and the TGI was above 100 µM.

As for `COc1ccc(OC)c(C2Cc3cnc4nc(N)nc(N)c4c3C2)c1` (stereo unspecified), the TGI turned out to be 66.3 µM.

As for `Cc1ccc(-c2c3c(n(C4OC(CO)C(O)C(O)C4O)c(=S)c2C#N)CC(C)(C)CC3=O)cc1` (stereo unspecified), the TGI is above 100 µM.

`CCCCCC(/C=C/C1CCC(=O)C1CC#C[Si](C)(C)C)OCc1ccccc1` (stereo unspecified) gave a TGI above 100 µM.

On to `COc1cc(-c2nn(-c3cccc(NC(=O)Nc4ccc(Cl)c(Cl)c4)c3)cc2-c2ccncc2)ccc1Cl`, for which the GI50 is 1.69 µM and the TGI was above 50 µM.

Regarding `O=C(NCCCN(CCCCN(CCCNC(=O)C(F)(F)F)CCCc1ccccc1)CCCc1ccccc1)C(F)(F)F`, the TGI was determined as 4.94 µM.

In the case of `CC(CCC#N)(CCC#N)C(=O)CC(O)(C(F)(F)F)C(F)(F)F`, the TGI was 35.8 µM.

With `COc1ccc(N2C(=O)CS(=O)(=O)C2c2cccc(Oc3ccccc3)c2)cc1` (stereo unspecified), the TGI was above 100 µM.

In turn, `COc1ccc(NC(=O)/C(N=O)=C(/C)O)cc1` registered a TGI above 100 µM.

Consider `Cc1ccc(NC(=S)NNC(=O)c2cc(-c3ccccc3)nc3ccccc23)cc1`, for which the TGI came out at 30.9 µM. That is a double-digit micromolar value.

For the compound `O=P(O)(Cc1ccccc1)c1ccccc1-c1ccccc1`, the TGI is above 100 µM.

Consider `CC(=C\c1ccccc1)/C=C(\C#N)C(N)=O`, for which the total growth inhibition concentration (TGI) was above 10 µM.

Take `Nc1nccc2c1ccn2-c1ccc(NC(=O)c2ccc(N3CCOCC3)c(C(F)(F)F)c2)cc1`: the GI50 was 3.78 µM and the TGI turned out to be 29.8 µM.

Regarding `CC(C)(C)c1cc(C(CO)OCCOCCO)cc(C(C)(C)C)c1O` (stereo unspecified), the TGI was above 100 µM.

`Cc1ccc(NC(=O)C2C(=O)N(c3ccc(C)c(C)c3)C(=O)C2N=N)cc1C` (stereo unspecified) had a TGI above 100 µM.

`O=c1c2c(-c3ccccc3)onc2n(-c2ccccc2)c(=O)n1-c1ccccc1` showed a TGI above 100 µM.

`COC(=O)c1c(O)ccc2c1c1c(n2Cc2ccc(Cl)cc2Cl)C(=O)c2ccccc2C1` showed a TGI above 100 µM.

`CCN1CCN=c2c3cc(OC)ccc3n3cnc4ccc1c2c43` returned a TGI of 0.839 µM.

Take `O=C(NCCCCN=c1cccccc1NCCCCNC(=O)OCc1ccccc1)OCc1ccccc1`: the TGI was 71.8 µM.

On to `CC(=O)c1cc2c(o1)C(=O)c1ccccc1C2=O`, for which the GI50 was 0.202 µM and 0.182 µM; the TGI is 0.457 µM and 0.339 µM.

With `C[C@H]1NC(=O)C2CCCCN2C(=O)CN(C)C(=O)CNC(=O)C2CCCCN2C(=O)[C@@H](NC(=O)c2nc3ccccc3cc2O)[C@@H](C)NC(=O)C2CCCCN2C(=O)CN(C)C(=O)CNC(=O)[C@@H]2CCCCN2C(=O)C1NC(=O)c1nc2ccccc2cc1O` (stereo partly specified), the TGI came out at 0.892 µM.

`Cc1ccc(S(=O)(=O)N/N=C/c2oc(-c3ccncc3)c(-c3ccncc3)c2[N+](=O)[O-])cc1` showed a TGI above 100 µM.

Compound `CC(=O)n1c2c(c(=O)n1-c1ccccc1)S(=O)CCC2` (stereo unspecified) yielded a TGI above 100 µM.

Regarding `CC(=O)Nc1ccc(-c2nc3cc(Cl)ccc3o2)cc1`, the TGI is above 50 µM.

In turn, `C[C@@]12CCC3C1C=C1C(=O)c4cc(O)ccc4C(=O)[C@]1(O2)[C@@]3(C)C=O` came in with a TGI of 19 µM.

Consider `N=c1ccn2c(n1)OC1C(O)C(CO)OC12` (stereo unspecified), for which the GI50 is above 100 µM and the TGI is above 1000 µM.

On to `c1ccc(SC2CCSc3ccccc3C2Sc2ccccc2)cc1` (stereo unspecified), for which the TGI was above 100 µM.

`O=C1NC(=S)NNC12c1ccccc1-c1ccccc12` gave a TGI above 10 µM.

Compound `COc1cc(C2SCC(=O)N2c2ccc(Cl)c(Cl)c2)cc(OC)c1OC` (stereo unspecified) had a TGI above 100 µM.

`COc1ccc(-c2c(C#N)c(O)n(NS(=O)(=O)c3ccc(C)cc3)c(=O)c2C#N)cc1` displayed a TGI above 100 µM.

`O=S(Cc1ccccn1)c1nc2ccccc2nc1-c1ccccc1` (stereo unspecified) came in with a concentration for total growth inhibition (TGI) above 100 µM.

The compound `COC1[C@@H](OC(C)=O)[C@@H](NC(=O)C(Cl)(Cl)Cl)C(I)[C@@H](N2C(=O)c3ccccc3C2=O)[C@H]1OC` (stereo partly specified) displayed a TGI above 100 µM.

As to `COc1cccc2c1C(=O)c1c(O)c3c(c(O)c1C2=O)CC(O)(/C(C)=N/NC(=O)CCC(=O)N/N=C(\C)C1(O)Cc2c(O)c4c(c(O)c2C(OC2CC(N)C(O)C(C)O2)C1)C(=O)c1c(OC)cccc1C4=O)CC3OC1CC(N)C(O)C(C)O1` (stereo unspecified), the GI50 was 1.34 µM and the TGI was above 19 µM.

On to `CN1C(=O)C(CC=O)(C(C)(C)C)c2ccccc21` (stereo unspecified), for which the TGI is above 100 µM.
